Experimental findings from ChEMBL document CHEMBL4888484, “Replenishing the malaria drug discovery pipeline: Screening and hit evaluation of the MMV Hit Generation Library 1 (HGL1) against asexual blood stage Plasmodium falciparum ,using a nano luciferase reporter read-out” (2022) are described below.

About 540 (0.36%) of roughly 150,000 compounds showed an effect of 50% or more. This is one part of the list.

By % Inhibition is commonly meant the relative decrease from the control value, in per cent.

The assay concerns Plasmodium falciparum. Description: Primary screen in NF54 nanoGlo assay, in single point, at 2uM, 72h; a lower Z score goes with more inhibition. The format is functional, Erythrocyte. The following applies: timepoint 72 hour.
For `CC1(C)CN(CC(=O)NCCc2ccccc2)C[C@]1(C)O`, the “% Inhibition” value is reported as -17% and the Z score turned out to be 2.95.
`COC(C)(C)C(=O)Nc1ccc(-n2ccc(=O)cc2)nc1`: the “% Inhibition” value was -8% and the Z score is 0.76.
In the case of `CCN(Cc1c(CO)cnc(C)c1O)c1nc2ccccc2o1`, the “% Inhibition” value amounted to 1% and the Z score is -0.16.
As for `O=S1(=O)C[C@@H]2[C@H](C1)N(CC1CC1)CCN2CCOc1ccc(F)cc1`, the “% Inhibition” value is recorded as -1% and the Z score was found to be 0.12.
Take `CCCc1cc(C(=O)NC2CCCCCC2CO)[nH]n1` (stereo not drawn): the “% Inhibition” value was -9% and the Z score is on record as 1.19.
For `Cc1cccc(-c2nnc3c4ccccc4nc(N4CCN(S(=O)(=O)c5ccccc5)[C@@H](C)C4)n23)c1`, in that order: -2% and 0.26.
Consider `Cc1cccc(OCCN2CCCC(C3(C)NC(=O)N(C)C3=O)C2)c1` (stereo not drawn), for which the “% Inhibition” value is -12% and the Z score is listed as 1.2.
Consider `COc1ccc([C@@H](NS(=O)(=O)c2c(C)n[nH]c2C)C2CC(O)C2)cn1` (stereo partly drawn), for which the “% Inhibition” value was -6% and the Z score came to 1.21.
In the case of `CCOC(=O)c1sc(-n2nc(C)c(Cc3ccccc3Cl)c2O)nc1C`, the “% Inhibition” value is on record as -9% and the Z score stood at 1.2.
With `O=C1c2ccc(Oc3ccc(Oc4ccc5c(c4)C(=O)N(CCCO)C5=O)cc3)cc2C(=O)N1CCCO`, the “% Inhibition” value is recorded as -3% and the Z score is 0.47.
In the case of `Nc1nc2cc(C(=O)N3CCc4c(nc[nH]c4=O)C3)ccc2s1`, the “% Inhibition” value was -21% and the Z score stood at 3.93.
For the compound `CCn1c(COC(=O)C(C)N2C(=O)C3CCCCC3C2=O)nc2cc(S(=O)(=O)N(C)C)ccc21` (stereo not drawn), the “% Inhibition” value was -9% and the Z score is 1.54.
On to `N#C[C@@H](NS(=O)(=O)CCC1CC1)C1CC1`, for which the “% Inhibition” value is listed as -1% and the Z score is listed as 0.13.
With `O=S(=O)(c1ccc(F)cc1)N1CCc2nnc(C3CC3)n2CC1`, the “% Inhibition” value is listed as -6% and the Z score is recorded as 1.09.
The matching figures for `Cc1cccc(C)c1NC(=O)c1cccc(N2C(=O)C3C4CC(c5ccccc5)C(C4)C3C2=O)c1` (stereo not drawn): 26% and -2.95.
In the case of `c1cnc2nc(N3CC4CCC3C4)c(N3CC4CCC3C4)nc2c1` (stereo not drawn), the “% Inhibition” value came out at 20% and the Z score is given as -2.28.
Consider `Cc1n[nH]c(C)c1Cc1nncn1-c1cccc2ccccc12`, for which the “% Inhibition” value was -6% and the Z score was found to be 0.75.
For the compound `Cc1cc(C(=O)NCCCN2CCOCC2)on1`, the “% Inhibition” value is -9% and the Z score was 1.34.
`COc1cc(-c2nc(C)cnc2C)cc2c1OCCNC2`: the “% Inhibition” value is -4% and the Z score turned out to be 0.54.
As for `Cc1nnc(NCCn2cccn2)c(C#N)c1C`, the “% Inhibition” value is reported as -8% and the Z score was determined as 1.03.
For `Cc1ccccc1CNC(=O)c1ccc2c(c1)NC(=O)[C@@H]1CCCCN21`, the “% Inhibition” value is on record as -10% and the Z score is 1.38.
For `O=C(Nc1nc2ccccc2s1)[C@@H]1CCCCN1S(=O)(=O)c1ccc(Cl)s1`, the “% Inhibition” value worked out at 11% and the Z score is recorded as -1.23.
As to `Cc1ccc(N2CCC(N3C(=O)[C@H]4CCCN4C3=O)CC2)nc1`, the “% Inhibition” value is -8% and the Z score came out at 0.81.
For `Cc1n[nH]c(=O)c(C(=O)Nc2ccc(F)cc2F)c1C`, in that order: -8% and 1.64.
With `CN1CCN(c2nc(N(C)C)c3ccccc3n2)CC1`, the “% Inhibition” value is -6% and the Z score came out at 0.88.
Turning to `C[C@H]1CCc2sc(C(=O)N3CCn4nc(CCC(=O)O)cc4C3)cc2C1`, the “% Inhibition” value is 4% and the Z score was -0.51.
Consider `Cc1c(C(=O)N2CCN(C3CCC3)C[C@H](C)C2)cnn1C(C)C`, for which the “% Inhibition” value was -1% and the Z score was determined as 0.26.
On to `CCOc1cc(CNCc2ccccc2)ccc1OCCOc1ccc(F)cc1`, for which the “% Inhibition” value came to 6% and the Z score is reported as -0.74.
Turning to `CCN(CC)C(=O)CCc1ccc(OC)cc1`, the “% Inhibition” value is recorded as -1% and the Z score worked out at 0.18.
`Cc1oc2ncn(CC(C)C)c(=O)c2c1C(=O)Nc1ccccn1`: the “% Inhibition” value was -8% and the Z score is given as 1.45.
With `C[C@H](CC(=O)O)CC(=O)N1CC2(CCOCC2)c2ccc(Br)cc21`, the “% Inhibition” value is reported as -12% and the Z score came out at 1.11.
In the case of `Cn1nccc1S(=O)(=O)NC1CCCC(C(F)(F)F)C1` (stereo not drawn), the “% Inhibition” value turned out to be 2% and the Z score is recorded as -0.29.
Regarding `CC[C@H](NS(=O)(=O)c1cnn(C2CCCC2)c1)c1nc(C)c[nH]1`, the “% Inhibition” value is -11% and the Z score is recorded as 1.43.
As to `O=C(c1cccn2c(=O)c3cc(Cl)ccc3nc12)N1CCN(c2cccc(Cl)c2)CC1`, the “% Inhibition” value was -10% and the Z score is 1.23.
The matching figures for `O[C@H]1[C@H](NCC2CCCC2)[C@H]2CO[C@H](O2)[C@@H]1n1cnc2ccccc21`: 9% and -1.09.
In the case of `COCc1nccc(N2CCC(N(C)C)C2C)n1` (stereo not drawn), the “% Inhibition” value was -10% and the Z score is recorded as 1.04.
In the case of `COc1ccc(Cl)cc1NC(=O)c1ccc(OC)c(-c2ccccn2)c1`, the “% Inhibition” value is on record as -19% and the Z score was determined as 1.94.
The matching figures for `COc1ccccc1-c1cc(CN(CC(C)C)C(=O)C2CCCC2)no1`: -13% and 1.64.
On to `Cc1nc(NC(C)C)sc1C(=O)n1ccnc1`, for which the “% Inhibition” value was -13% and the Z score was determined as 1.64.
As to `CCc1nnc2nc(N3CCN(C(=O)c4ccc(C)cc4)CC3)cc(C)n12`, the “% Inhibition” value is recorded as -14% and the Z score stood at 2.7.
Take `CCOC(=O)C[C@H]1C(=O)NCCN1C1CCCCC1`: the “% Inhibition” value is listed as -9% and the Z score came to 1.62.
For the compound `CCS(=O)(=O)N(C)C1CCN(C(=O)CCC2CCCCC2)CC1`, the “% Inhibition” value is reported as -8% and the Z score is recorded as 1.01.
With `CC(C)(C)c1cnc(COc2ccccc2-c2nnc[nH]2)o1`, the “% Inhibition” value was -11% and the Z score was determined as 1.51.
On to `C#CCN1CCC[C@@H]1COC(=O)c1cnn(C)c1C`, for which the “% Inhibition” value was found to be 38% and the Z score was -3.85.
For `O=C(NCCCN1CCCC1=O)NC1CCCC1`, the “% Inhibition” value is given as -5% and the Z score came out at 0.53.
`COC(=O)c1ccc(N2C[C@@H]3OC(=O)N(Cc4ccccn4)[C@@H]3C2)nc1`: the “% Inhibition” value was -11% and the Z score turned out to be 1.16.
For the compound `Cc1sc(-c2ccccc2F)nc1C(=O)Nc1nc2ccccc2[nH]1`, the “% Inhibition” value was found to be 1% and the Z score is listed as -0.09.
`CCOC(=O)CN1C(=O)C2(NC(C)C3C(=O)N(c4cccc(Cl)c4)C(=O)C32)c2ccccc21` (stereo not drawn): the “% Inhibition” value is listed as -2% and the Z score was 0.35.
Consider `COc1cc(F)c(C(=O)N(C2CC2)[C@@H](C)c2cccnc2)cc1OC`, for which the “% Inhibition” value is given as -6% and the Z score turned out to be 0.88.
In the case of `Cc1cc(C(=O)NCc2nccn2CCCc2ccccc2)on1`, the “% Inhibition” value is on record as 10% and the Z score was -1.56.
Consider `Cn1cncc1C(=O)NCC1CCN(C(=O)C(=O)c2cccn2C)CC1`, for which the “% Inhibition” value is on record as -14% and the Z score was 1.85.
Take `CC(=O)N[C@@H](c1ccccc1)c1ccc2c(c1)CCCO2`: the “% Inhibition” value is reported as 5% and the Z score was -0.87.
With `COCC(=O)N1CCc2cc(NC(=O)c3cnc4ccccc4n3)ccc21`, the “% Inhibition” value is listed as -16% and the Z score is 1.99.
With `CCCc1cncnc1-c1cccc(C(=O)N2Cc3nc(C)[nH]c(=O)c3C2)c1`, the “% Inhibition” value is reported as 4% and the Z score was -0.46.
In the case of `Cc1nc(C)c(F)c(NCc2sncc2Br)n1`, the “% Inhibition” value is -13% and the Z score came out at 1.42.
On to `COC(=O)C1CCC(NC(=O)COC2CCCC(C)C2)CC1` (stereo not drawn), for which the “% Inhibition” value is given as -13% and the Z score stood at 1.96.
As for `O=C1NCCCn2cc(S(=O)(=O)N3CCN(c4ccc(Cl)cc4)CC3)cc21`, the “% Inhibition” value is on record as -3% and the Z score stood at 0.38.
For `Clc1cccc(C2(c3nnc(-c4cnccn4)o3)CCOCC2)c1`, the “% Inhibition” value is -6% and the Z score is given as 0.78.
The matching figures for `CC(C)ONC(=O)[C@@H]1Cc2cc(F)ccc2NC1=O`: -8% and 0.88.
Regarding `Cc1oc(-c2ccccc2Cl)nc1Cn1cccc1C1=N[C@H](c2ccccc2)CO1`, the “% Inhibition” value is given as -2% and the Z score was determined as 0.44.
For `COC[C@H]1CCCN1[C@@H]1[C@H](O)[C@H](CO)O[C@@H]1CNC(=O)Nc1ccc(OC(F)(F)F)cc1`, the “% Inhibition” value worked out at 16% and the Z score was -1.86.
On to `Cc1cc(C(=O)Nc2cccc(C(N)=O)n2)on1`, for which the “% Inhibition” value is recorded as 29% and the Z score is on record as -3.91.
As to `COc1ccc(NC(=O)COC(=O)[C@@H](Nc2ccc(C(F)(F)F)cc2Cl)C(C)C)cc1S(N)(=O)=O`, the “% Inhibition” value was -18% and the Z score was 2.98.
On to `Cc1cc(C)c(CNC(=O)c2csc(C)n2)c(=O)[nH]1`, for which the “% Inhibition” value is -10% and the Z score turned out to be 1.6.
As for `COc1cc(F)c(S(=O)(=O)NC(=O)CCn2ccnn2)c(F)c1`, the “% Inhibition” value is recorded as -14% and the Z score is recorded as 1.27.
For `Cc1cccc(C)c1-n1c(=O)n(C[C@H]2CCCO2)c(=O)c2c1ncn2Cc1cccc(Cl)c1`, the “% Inhibition” value is given as -7% and the Z score came to 0.69.
On to `Cc1oc(Br)cc1C(=O)NS(=O)(=O)C1C[C@@H]2CC[C@H]1C2` (stereo partly drawn), for which the “% Inhibition” value was -3% and the Z score is reported as 0.32.
On to `Cc1ccc(Cc2ccccc2C(=O)N[C@@H]2CN[C@H](C(=O)O)C2)cc1F`, for which the “% Inhibition” value was determined as 7% and the Z score was -0.92.
With `Cc1ccc(N(C(=O)Cn2nnnc2N)C2(C(=O)Nc3ccccc3C)CCCCC2)cc1`, the “% Inhibition” value is 8% and the Z score is listed as -0.93.
Consider `O=C(CN1CCN(C(=O)Nc2ccccc2)CC1=O)N1CCN(c2cccc(Cl)c2)CC1`, for which the “% Inhibition” value is -3% and the Z score was determined as 0.58.
`c1ccc(-c2ncn(C[C@@H](c3ccco3)N3CCCC3)c2-c2ncc[nH]2)cc1`: the “% Inhibition” value was -11% and the Z score is 1.3.
For `Cc1nsc(C)c1NC(=O)c1ccoc1C1CC1`, the “% Inhibition” value came out at 8% and the Z score is -0.96.
In the case of `O=C(Nc1cccnc1)N1CCC(Oc2ccc(Cl)cc2)CC1`, the “% Inhibition” value is -7% and the Z score is 1.06.
In the case of `CC1(C)CCCc2sc(NC(=O)NCc3cccnc3N)nc21`, the “% Inhibition” value stood at 32% and the Z score is reported as -3.61.
Regarding `CN(CC(C)(C)O)S(=O)(=O)c1cc(Br)ccc1F`, the “% Inhibition” value is -16% and the Z score is on record as 1.93.
For `O=C(CCNC(=O)c1cnn(Cc2ccccc2)c1)N[C@H]1CCS(=O)(=O)C1`, in that order: -9% and 1.05.
As for `O=C(N[C@H]1CCCN(C2CCCCC2)C1=O)c1cc(C2CC2)on1`, the “% Inhibition” value is given as -7% and the Z score is on record as 0.98.
Consider `COC[C@H]1CCN(C(=O)NCc2cc(OC)ccn2)C1`, for which the “% Inhibition” value amounted to 0% and the Z score came out at 0.05.
For `O=C(Cc1cccs1)NC[C@H]1CCCO1`, in that order: -3% and 0.35.
For `O=C(Nc1cccc2ncccc12)C1CCN(C2CC2)CC1`, the “% Inhibition” value is recorded as -5% and the Z score amounted to 0.65.
As to `Cc1ccc(F)c(S(=O)(=O)N(C)CC(=O)NCC(F)(F)F)c1`, the “% Inhibition” value was -10% and the Z score worked out at 1.27.
On to `O=C(c1cccs1)N1CCCCCCC1`, for which the “% Inhibition” value was -18% and the Z score is given as 2.32.
Turning to `COc1cccc(CC(=O)N2CCC3(CC2)NC(c2ccc(C)cc2)=NO3)c1`, the “% Inhibition” value was -7% and the Z score stood at 0.86.
Regarding `O=C(O)c1nnn(Cc2ccccc2F)c1-c1cccnc1`, the “% Inhibition” value was 1% and the Z score is -0.06.
